The campaign covered roughly 48,000 compounds. About 120 (0.25%) were called active. Inconclusive results (about 4%) are left out. Calls come from the whole dose curve; as a rule, active = well fitted activation curve with a large enough effect; inconclusive = small, poorly fitted or top-dose-only effect, or another doubt; inactive = no such curve, though single readings can be large or run the other way. Some of the results follow.
Assay: Primary qHTS for Identification of Small Molecule Activators of Huntingtin-Antisense Promoter Activity; note: nearly all actives have a fitted effect of over 55% in size
Details: HEK293 HTT-AS promoter firefly luciferase reporter (activity 0% = vehicle and -100% = no light), 24 h; series mostly up to 57.5 µM; activity change, positive = activation: at the top concentration
Procedure, shortened: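 Firefly luciferase signal from promoter-reporter HEK293 cells was scaled between vehicle (0%) and zero RLU (-100%). Compounds were tested at final concentrations of up to 57.5 uM over 24 h at 37 degrees C. PTC124 at 50 uM final served as control inhibitor.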

Row | Structure (SMILES) | activity change, positive = activation
1 | CCOc1ccccc1NC(=O)Cn1cnc2onc(-c3ccc(F)cc3)c2c1=O | inactive: -22.3%
2 | COc1ccc(-n2c(=O)c3ccc(C(=O)NCc4ccc(C)cc4)cc3n(CC(=O)Nc3ccc(F)cc3)c2=O)cc1 | inactive: -12.3%
3 | NCc1c[nH]c(=S)n1[C@H]1CCc2c(F)cc(F)cc2C1 | inactive: -22.2%
4 | CC1=C(C(N)=O)C(c2cccc(Br)c2)n2nc(SCc3ccccc3)nc2N1 (configuration not stated) | inactive: -9.02%
5 | O=C(NCc1cccnc1)C1CCN(Cc2cc3ccccc3n2Cc2cccc(Cl)c2)CC1 | inactive: -27%
6 | CCCCc1nnc(SCc2cc(=O)c3cc(C(=O)OCC)ccc3[nH]2)n1C | inactive: -14.1%
7 | CCC1CCc2nc3sc(C(=O)Nc4ccc(F)cc4F)c(N)c3cc2C1 (configuration not stated) | inactive: 12.8%
8 | CC(=O)Nc1cccc(C(=O)NCc2ccc3c(c2)CCN3C(=O)c2ccccc2)c1 | inactive: -23%
9 | CCOc1ccc(CCNC(=O)Cn2nnc(-c3ccccc3)n2)cc1OCC | inactive: -17%
10 | Cc1ccc2cccc(NC(=O)c3ccc(-c4cccc([N+](=O)[O-])c4)o3)c2n1 | inactive: -13.6%
11 | COc1cc(OC)c(NC(=O)NC(C)c2c(-n3cccc3)sc(C)c2C)cc1Cl (configuration not stated) | inactive: -28.7%
12 | CCCCNC(=O)CSc1nc2nc(C)c(Cc3ccccc3C)c(C)n2n1 | inactive: -21%
13 | COc1cc(NS(=O)(=O)c2ccc(NC(=O)c3ccccc3C(=O)O)cc2)nc(OC)n1 | inactive: -9.61%
14 | CC(C)CC(=O)Nc1ccc(C(=O)OCc2cc(=O)n3nc(C(C)C)sc3n2)cc1 | inactive: -28%
15 | COc1ccc(/C=C/c2nc(C#N)c(NCCc3ccc(OC)c(OC)c3)o2)cc1OC | inactive: -26.2%
16 | C[N+]1(C)[C@@H]2CC(OC(=O)[C@H](CO)c3ccccc3)C[C@H]1[C@H]1O[C@@H]12 (some centres not stated) | inactive: 14.2%
17 | COc1ccc(C(=O)N2CC(=O)Nc3ccc(F)cc3C2c2ccc(F)cc2)c(OC)c1 (configuration not stated) | inactive: -11.4%
18 | CCOC(=O)c1sc(NC(=O)/C=C/c2ccc(OCC)cc2)c(C(=O)OCC)c1C | inactive: 35.7%
19 | COC(=O)c1cccc(Nc2c(-c3ccc(O)c(OC)c3)nc3nc[nH]n23)c1 | inactive: -16.2%
20 | CCOc1ccc(-c2c(C)nn3c(C)c(C(=O)Nc4ccccc4C(=O)OC)cnc23)cc1OCC | inactive: -6.31%
21 | Cn1c(=O)c2c(ncn2CC(O)CO)n(C)c1=O (configuration not stated) | inactive
22 | COCc1cc(C)nc2sc3c(c12)NC(c1ccc(O)cc1)N(c1ccc(OC)cc1)C3=O (configuration not stated) | inactive: -10.6%
23 | CCOc1ccc(NC(=O)C2Cc3ccccc3N2C(=O)c2ccccc2)cc1 (configuration not stated) | inactive: -13.2%
24 | CCCCOc1ccc(CNC(=O)C2CCN(c3nnc(-n4cccc4CNc4ccc(C)cc4)s3)CC2)cc1 | inactive: -42.7%

Row | Structure (SMILES) | activity change, positive = activation
25 | COc1cc(Cn2c(=O)sc3ccccc32)ccc1OC(C)C | inactive: -44.6%
26 | COc1ccccc1NC(=O)Cc1c(C(=O)O)[nH]c2ccc(Cl)cc12 | inactive: -4.48%
27 | Cc1ccc(-c2nc3cc(C(C)C)ccc3o2)cc1NC(=O)c1cccs1 | inactive: 18.4%
28 | COCCn1c(C)cc(O)c(C(c2ccccc2)N2CCN(C)CC2)c1=O (configuration not stated) | inactive: -1.39%
29 | Cc1cccc(NC(=O)CSc2nc3ccc(NC(=O)c4ccco4)cc3s2)c1 | inactive: -7.25%
30 | Cc1cc(NC(=O)C(C)C)cc(-c2nc3ncccc3o2)c1O | inactive: -9.49%
31 | Cc1ccc2nc(-c3ccc(O)cc3)c(Nc3ccc4c(c3)OCO4)n2c1 | inactive: 0.383%
32 | CC(C)N(Cc1ccccc1)C(=O)CCS(=O)(=O)c1cc2c(cc1Cl)NC(=O)CO2 | inactive: -19.5%
33 | Cc1cc(C)n2nc(SCC(=O)Nc3ccccc3)nc2n1 | inactive: -1.16%
34 | Cc1cc2nc(-c3cc(NC(=O)c4cc5ccccc5o4)ccc3Cl)oc2cc1C | inactive: 13%
35 | CCc1ccc(NC(=O)CSc2nc3n[nH]c(C)c3c(=N)n2-c2ccccc2C)cc1 | inactive: -29.4%
36 | CCCNC(=O)C1CCN(S(=O)(=O)c2ccc3c(c2)CCCN3C(C)=O)CC1 | inactive: -9.7%
37 | Cc1oc(-c2ccc(Cl)cc2)nc1CS(=O)CC(=O)NCc1ccc(Cl)cc1 (configuration not stated) | inactive: -20.7%
38 | Cc1ccccc1OCc1nnc(SCc2cc(=O)c3ccccc3[nH]2)n1C | inactive: 9.61%
39 | COc1ccc(N(CC(=O)NCCc2cccc(C)c2)S(=O)(=O)c2c(C)nn(C)c2C)cc1 | inactive: -20.9%
40 | CCOC(=O)C1=C(CS(=O)(=O)c2c(C)cc(C)cc2C)NC(=O)NC1c1cccc(OC)c1 (configuration not stated) | inactive: -4.73%
41 | COc1ccccc1N1CCN(C(CNC(=O)C(=O)NCCCN(C)C)c2cccnc2)CC1 (configuration not stated) | inactive: -1.45%
42 | N#Cc1c(NC(=O)c2cc3nc(-c4ccc(Br)cc4)cc(C(F)(F)F)n3n2)sc2c1CCCC2 | inactive: 0.996%
43 | O=C1CC(c2ccccc2C(F)(F)F)c2c(c3ccccc3[nH]c2=O)O1 (configuration not stated) | inactive: -14.5%
44 | CCOc1ccc(OCC)c(NC(=O)C2CCN(S(=O)(=O)c3ccc(Br)s3)CC2)c1 | inactive: -8.92%
45 | COc1ccc2nc(SCC(=O)c3c(C)[nH]c4ccccc34)nc(C)c2c1 | inactive: -9.77%
46 | O=C(Nc1ccc(F)cc1)[C@H](CSCc1ccccc1)N1Cc2ccccc2C1=O | inactive: -16.7%
47 | Cc1ccc(N2CCN(C(=O)Cc3c(C(=O)O)c(C)cn3C)CC2)c(C)c1 | inactive: -22%
